Test results taken from the supplement of paper PMC10441789.
The list shows a part of the results. Antibody binding of pooled human sera (four to six donors per pool; dilution not stated) to peptides of the Trypanosoma cruzi antigen TSSA on microarrays. Quantile-normalised fluorescence in arbitrary units, mean of duplicate arrays; higher = more binding. No active / inactive call. The uninfected pools are read here as the healthy donors of the same country. The strongest signals lie near the top of the scale (about 60,000).

Experiments:
Assay in all cases: antibody binding signal (normalised fluorescence) (arbitrary fluorescence units); higher = stronger serum antibody binding to peptide
[1] = test system: pooled sera of chronic Chagas disease patients, Bolivia
Procedure: (§1)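 Microarray of 15-residue peptides over residues 30-55 of Trypanosoma cruzi TSSAII, each with 1 to 10 substitutions at naturally variable positions, probed with one serum pool per country.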

[2] = test system: pooled sera of chronic Chagas disease patients, Brazil
Procedure: as §1

[3] = test system: pooled sera of chronic Chagas disease patients, Colombia
Procedure: as §1

[4] = test system: pooled sera of chronic Chagas disease patients, Mexico
Procedure: as §1

[5] = test system: pooled sera of chronic Chagas disease patients, USA
Procedure: as §1

[6] = test system: pooled sera of uninfected people, Argentina
Procedure: as §1

[7] = test system: pooled sera of uninfected people, Bolivia
Procedure: as §1

[8] = test system: pooled sera of uninfected people, Brazil
Procedure: as §1

[9] = test system: pooled sera of uninfected people, Colombia
Procedure: as §1

[10] = test system: pooled sera of uninfected people, Mexico
Procedure: as §1

[11] = test system: pooled sera of uninfected people, USA
Procedure: as §1

| Sequence | antibody binding signal [1] | antibody binding signal [2] | antibody binding signal [3] | antibody binding signal [4] | antibody binding signal [5] | antibody binding signal [6] | antibody binding signal [7] | antibody binding signal [8] | antibody binding signal [9] | antibody binding signal [10] | antibody binding signal [11] |
| --- | --- | --- | --- | --- | --- | --- | --- | --- | --- | --- | --- |
| PSGKDKKTATGEAPS | 3650 | 7760 | 2390 | 2410 | 15200 | 198 | 400 | 92.8 | 130 | 81.4 | 95.7 |
| GKDNKPATGEAPSPP | 25100 | 49300 | 2320 | 3330 | 41700 | 1080 | 972 | 209 | 294 | 307 | 137 |
| KENKTATGGTPSQPG | 260 | 369 | 1350 | 289 | 573 | 473 | 106 | 177 | 157 | 690 | 144 |
| GKDKKPATGGTPSQS | 414 | 221 | 622 | 811 | 981 | 214 | 135 | 424 | 185 | 157 | 95.4 |
| GTENKAAAGGTPSPP | 547 | 660 | 3020 | 882 | 1490 | 150 | 407 | 1400 | 522 | 197 | 101 |
| KDNKTAAGGTPSPSG | 259 | 209 | 3930 | 239 | 1340 | 260 | 237 | 341 | 203 | 282 | 138 |
| ENKTATGGAPSQPGA | 3050 | 4980 | 555 | 459 | 1150 | 384 | 204 | 417 | 242 | 539 | 263 |
| KKAAAGGAPSPPGAS | 219 | 176 | 2130 | 310 | 559 | 242 | 167 | 134 | 110 | 80.2 | 200 |
| TENKPATGETPSQPG | 32200 | 44300 | 287 | 657 | 29000 | 404 | 1100 | 463 | 234 | 1710 | 279 |
| DKKPATGGAPSQPGA | 675 | 17400 | 1530 | 971 | 1800 | 388 | 815 | 227 | 233 | 199 | 253 |
| GKDNKPATGEAPSQS | 30300 | 48200 | 4610 | 7830 | 41600 | 1010 | 1410 | 221 | 398 | 406 | 138 |
| STPPSGKDNKTAAGE | 25200 | 10400 | 990 | 32200 | 4000 | 356 | 584 | 241 | 308 | 126 | 125 |
| GKENKTATGGTPSQS | 397 | 10000 | 5910 | 5660 | 14400 | 434 | 116 | 123 | 100 | 197 | 141 |
| GKDKKPATGEAPSPP | 17200 | 39400 | 1350 | 1530 | 33200 | 738 | 292 | 130 | 184 | 97.2 | 116 |
| ENKAAAGGAPSPPGA | 1250 | 1590 | 4160 | 334 | 1170 | 274 | 168 | 197 | 265 | 162 | 384 |
| DNKAAAGEAPSQPGA | 26500 | 41900 | 156 | 186 | 13700 | 130 | 265 | 183 | 122 | 308 | 124 |
| TPPSGKENKTAAGET | 10600 | 4380 | 588 | 2150 | 2240 | 1700 | 1360 | 243 | 779 | 278 | 230 |
| TENKTATGGAPSPPG | 1350 | 682 | 455 | 811 | 838 | 384 | 188 | 337 | 148 | 402 | 185 |
| NKTAAGETPSPPGAS | 798 | 2770 | 344 | 467 | 887 | 531 | 1170 | 817 | 596 | 261 | 1510 |
| KTAAGGAPSQSGASS | 253 | 370 | 6220 | 1170 | 250 | 299 | 155 | 152 | 114 | 361 | 206 |
| PPSGTENKTAAGGAP | 37900 | 47100 | 2730 | 6900 | 10200 | 2190 | 899 | 513 | 775 | 426 | 1120 |
| SGKDKKTAAGGTPSQ | 201 | 289 | 4850 | 678 | 1840 | 114 | 83.9 | 244 | 178 | 118 | 110 |
| DKKTATGEAPSQSGA | 16400 | 16300 | 162 | 427 | 18900 | 221 | 129 | 156 | 113 | 232 | 194 |
| TPPSGTENKPATGGA | 45800 | 47000 | 442 | 11000 | 27600 | 6030 | 1790 | 896 | 942 | 845 | 1100 |
| EKKPAAGGTPSPPGA | 244 | 403 | 5630 | 326 | 1150 | 185 | 1100 | 2270 | 193 | 157 | 1180 |

| Sequence | antibody binding signal [1] | antibody binding signal [2] | antibody binding signal [3] | antibody binding signal [4] | antibody binding signal [5] | antibody binding signal [6] | antibody binding signal [7] | antibody binding signal [8] | antibody binding signal [9] | antibody binding signal [10] | antibody binding signal [11] |
| --- | --- | --- | --- | --- | --- | --- | --- | --- | --- | --- | --- |
| TPPSGKDNKTATGGA | 354 | 2060 | 1140 | 31800 | 2680 | 656 | 398 | 139 | 233 | 94.9 | 245 |
| GTDNKPATGGTPSPP | 715 | 42900 | 1320 | 439 | 519 | 210 | 675 | 583 | 583 | 423 | 156 |
| GTEKKTAAGEAPSPS | 273 | 433 | 878 | 838 | 7160 | 220 | 658 | 168 | 1080 | 144 | 116 |
| TSSTPPSGTDNKAAT | 45600 | 50200 | 1130 | 9930 | 20000 | 1040 | 606 | 1550 | 179 | 271 | 362 |
| KDNKTATGGAPSQSG | 212 | 280 | 1640 | 284 | 351 | 382 | 116 | 123 | 177 | 126 | 135 |
| GKDKKAAAGGTPSQS | 233 | 148 | 1680 | 619 | 1150 | 124 | 77.3 | 458 | 105 | 108 | 91.3 |
| EKKPAAGGTPSPSGA | 195 | 355 | 5350 | 300 | 1120 | 183 | 613 | 2540 | 165 | 112 | 745 |
| ENKAAAGGTPSPSGA | 1430 | 317 | 4290 | 318 | 1240 | 193 | 209 | 2260 | 478 | 159 | 157 |
| GKENKTATGETPSPP | 2200 | 16600 | 14000 | 12200 | 21000 | 469 | 276 | 134 | 181 | 264 | 607 |
| TPPSGTENKPATGGT | 49700 | 54200 | 248 | 4720 | 34200 | 9190 | 1700 | 1230 | 754 | 1080 | 1130 |
| SGTENKTATGGTPSP | 9860 | 16100 | 827 | 867 | 4080 | 429 | 340 | 349 | 415 | 289 | 170 |
| DNKAAAGGAPSPPGA | 456 | 608 | 3730 | 272 | 895 | 364 | 371 | 237 | 533 | 476 | 229 |
| NKAAAGGAPSQPGAS | 379 | 14000 | 4340 | 474 | 459 | 1070 | 1340 | 253 | 382 | 252 | 1400 |
| SGKENKPATGGAPSP | 2200 | 16900 | 3620 | 4920 | 17600 | 8200 | 4040 | 148 | 228 | 376 | 254 |
| NKAATGGAPSQSGAS | 377 | 4190 | 518 | 652 | 666 | 865 | 913 | 240 | 296 | 470 | 1150 |
| GTDNKAAAGETPSQS | 359 | 34300 | 208 | 168 | 242 | 81.7 | 700 | 1230 | 128 | 151 | 74.9 |
| SGKDKKPAAGGAPSP | 255 | 457 | 3150 | 1420 | 1450 | 140 | 104 | 98.9 | 632 | 77.4 | 99.7 |
| TDKKAATGEAPSQSG | 33500 | 30300 | 202 | 327 | 23900 | 443 | 107 | 161 | 540 | 208 | 201 |
| KDKKPAAGGAPSPSG | 231 | 205 | 1730 | 259 | 475 | 110 | 74.1 | 125 | 69.8 | 72.5 | 106 |
| TPPSGTENKPATGET | 45300 | 47800 | 318 | 5840 | 27900 | 9360 | 1080 | 484 | 471 | 2770 | 3370 |
| DNKTAAGETPSPPGA | 288 | 715 | 252 | 305 | 808 | 155 | 320 | 256 | 204 | 261 | 395 |
| SGTDKKAAAGGAPSQ | 220 | 1230 | 9530 | 1080 | 765 | 193 | 132 | 178 | 206 | 510 | 177 |
| KDKKTAAGGAPSQPG | 222 | 382 | 2240 | 234 | 208 | 170 | 116 | 111 | 168 | 85.3 | 130 |
| GTDNKTATGGTPSPP | 885 | 27400 | 626 | 439 | 439 | 260 | 707 | 1810 | 517 | 260 | 152 |
